This passage reports inhibition results from PubChem BioAssay AID485344 (National Center for Advancing Translational Sciences (NCATS), 2010).

Hit rate of the full screen: of about 340,000 compounds, about 6,900 (2%) were called active. No stated cut-off is given here; in the data, active means inhibition above about 30%; inactive means below that, where a call was filed. The entries are a selection whose mix differs from that of the whole data set. Entries without a call were filed so in the source. A structure can be active in one record and inactive in another.

For this test, the target named is D(2) dopamine receptor (Homo sapiens) (UniProt P14416). The test is described as follows: HTS Assay for Allosteric Antagonists of the Human D2 Dopamine Receptor: Primary Screen for Antagonists. Further: 0% is about no effect. The conditions noted are these: HEK293 TREx D2 cells, calcium flux, dopamine EC80; at 10 µM; stronger effect = higher value. The method, boiled down: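 In this primary screen, negative modulation is detected by tracking calcium flux after an EC80 dopamine challenge in inducible HEK293 T-REx D2 cells preexposed to test compound for 180 s.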
Sequence of UniProt P14416 (P14416 whole entry, looked up): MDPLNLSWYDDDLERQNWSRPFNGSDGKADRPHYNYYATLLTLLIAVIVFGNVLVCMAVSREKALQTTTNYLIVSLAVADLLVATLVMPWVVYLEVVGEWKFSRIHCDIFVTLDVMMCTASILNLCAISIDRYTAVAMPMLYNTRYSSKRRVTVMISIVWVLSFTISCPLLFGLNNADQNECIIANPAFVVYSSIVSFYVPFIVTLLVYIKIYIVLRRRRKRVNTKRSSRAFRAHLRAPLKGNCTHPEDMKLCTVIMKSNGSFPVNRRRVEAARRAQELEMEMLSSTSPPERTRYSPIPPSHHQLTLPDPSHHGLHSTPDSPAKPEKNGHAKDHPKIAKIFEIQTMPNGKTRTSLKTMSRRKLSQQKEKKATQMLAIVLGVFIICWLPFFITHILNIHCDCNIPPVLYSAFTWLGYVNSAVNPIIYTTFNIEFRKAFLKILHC
On to `Cc1ccc(N(C(=O)COc2ccccc2C)S(=O)(=O)c2ccc(Cl)cc2)cc1`, for which the inhibition was -8.85%.
As for `CC(C)N(Cc1ccccc1)c1ncnc2c1nnn2C`, the inhibition was 17.1%.
For `COc1ccc(-c2cc(C(F)F)n3ncc(C(=O)N4CCN5CCCC5C4)c3n2)cc1` (stereo not drawn), the inhibition was active: 51.8%.
In the case of `CCOc1ccc(C(c2c(O)cc(C)n(CCOC)c2=O)N2CCN(c3ccccc3F)CC2)cc1` (stereo not drawn), the inhibition was -16.9%.
With `Nc1cc(C(=O)OCC(=O)Nc2ccc(N3CCOCC3)cc2)ccc1Cl` the figure was active: 48%; with `CCCCC1CCC(C(=O)Nc2ccccc2N2CCOCC2)CC1` (stereo not drawn), active: 33.1%.
As to `COCCCNC(=O)C(=O)NCC(c1ccc2c(c1)OCO2)N1CCOCC1` (stereo not drawn), the inhibition was 27.1%.
Regarding `COc1ccc(NC(=O)C2=C(C)Nc3nc(CCCO)nn3C2c2ccc(O)cc2)cc1` (stereo not drawn), the inhibition was 8.49%.
Take `Cc1ccc(C)c(S(=O)(=O)c2nnn3c2nc(N2CCOCC2)c2sccc23)c1`: the inhibition is -14.4%.
As for `COC(=O)c1sccc1S(=O)(=O)N1CCN(c2ccccc2OC)CC1`, the inhibition was 9.45%.
Take `O=C(Nc1ccc2nc(SCCOc3ccccc3Cl)sc2c1)c1cccs1`: the inhibition was -0.329%.
For the compound `Cc1ccc(-c2cc(C(=O)O)c3cc(Br)ccc3n2)s1`, the inhibition was active: 31%.
For `Cc1c(/C(Cc2ccccc2)=N/O)c2ccccc2n1C`, the inhibition was active: 36.9%.
`COc1ccc(N2CC(C(=O)Nc3ccc(NC(C)=O)cc3)CC2=O)cc1` (stereo not drawn): the inhibition is 7.09%.
For the compound `COc1ccccc1-c1nnc(SCCOc2ccccc2C)o1`, the inhibition is -5.06%.
For `CCc1cccc(CC)c1NS(=O)(=O)c1ccc2c(c1)CCN2C(=O)C1CC1` the value was 2.33%; for `CC(C)c1ccc(S(=O)(=O)c2cnc(SCC(=O)Nc3cccc(C(F)(F)F)c3)nc2N)cc1`, 6.23%; for `CCOC(=O)c1cc(-c2ccc(OC)c(S(=O)(=O)Nc3ccc(OC)cc3OC)c2)on1`, 2.02%.
For `Cc1ccc(CNC(=O)c2nnc(Cc3cccc(F)c3)o2)cc1` the value was -15.1%; for `COc1ccc(-c2nc3ccccc3n2Cc2ccc(C(C)C)cc2)cc1`, 10%.
With `Cc1ccccc1NC(=O)C1CCN(C(=O)c2ccc(F)cc2)CC1`, the inhibition was -7.05%.
In the case of `CCOc1ccc(NC(=O)Cn2cc(C(=O)c3ccc(F)cc3)c(=O)c3cc4c(cc32)OCO4)cc1`, the inhibition is -4.36%.
In the case of `CCOC(=O)N1CCC(NC(=O)c2cnn(-c3ccc(C)cc3)c2-n2cccc2)CC1`, the inhibition was -9%.
For the compound `Cc1cccc(-c2nc3cc(NC(=O)c4ccc(OCC(C)C)cc4)ccc3o2)c1`, the inhibition stood at 0.541%.
Take `COc1ccc(NC(=O)c2cnc(N3CCOCC3)c3ccccc23)cc1OC`: the inhibition is 2.05%.
With `Cc1ccn2c(c1)nc(=O)c1cc(S(=O)(=O)N3CCCCC3)ccc12` the figure was -7.76%; with `COc1cccc(CCNC(=O)c2ccc(Cn3c(SCc4ccccc4)nc4cccnc43)cc2)c1`, -4.2%.
Turning to `CCOc1ccc(NC(=O)NC(C)c2c(-n3cccc3)sc3c2CCN(CC)C3)cc1` (stereo not drawn), the inhibition is -21.2%.
On to `O=C(Nc1ccc2nc(SCCOc3ccccc3)sc2c1)c1ccco1`, for which the inhibition is -22.1%.
With `Cc1c(Cl)cccc1NC(=O)c1cc(-c2cccc(Cl)c2)on1` the figure was -11.9%.
On to `CC(C)C(=O)Nc1ccccc1C(=O)OCc1cc(=O)n2nc(C3CC3)sc2n1`, for which the inhibition was found to be 10.8%.
In the case of `O=C(Nc1cccc(Br)c1)Nc1nc2c(s1)CCCCCC2`, the inhibition came out at 15.6%.
Regarding `O=C(CN1C(=O)c2cccnc2Oc2ccc(Cl)cc21)NCCCN1CCCCC1`, the inhibition is -13.9%.
In the case of `COc1cc2c(C(=O)N3CCN(c4cccc(Cl)c4)CC3)cn(C)c(=O)c2cc1OC`, the inhibition was -6.32%.
For `Cc1nn2c(=O)cc(COC(=O)c3ccc(NC(=O)CCc4ccccc4)cc3)nc2s1` the value was -8.27%.
Regarding `Cc1cccc(OCCn2c(SCC(N)=O)nc3ccccc32)c1`, the inhibition was determined as 2.43%.
As to `COc1ccc(CCNC(=O)C(=O)NCC(c2ccco2)S(=O)(=O)c2cccs2)cc1` (stereo not drawn), the inhibition was 1.35%.
With `CCC(Sc1nc2cc3c(cc2c(=O)n1CCCCCC(=O)NCc1ccc2c(c1)OCO2)OCO3)C(=O)NCCCOC` (stereo not drawn) the figure was 2.33%.
For `CC1Cc2cc(S(=O)(=O)CCC(=O)Nc3cccc(F)c3)ccc2N1C(=O)C1CC1` (stereo not drawn) the value was 8.39%.
For `CC(=O)Nc1ccc(S(=O)(=O)N2CCC(N3CCN(Cc4ccc(C)cc4)C(=O)C3=O)CC2)cc1` the value was 6.37%; for `Cc1cc(C)cc(NS(=O)(=O)c2cc3[nH]c(=O)c(=O)[nH]c3cc2C)c1`, -14.4%; for `O=C(Cn1nnc(-c2ccc(C(F)(F)F)cc2)n1)NCCc1ccccc1`, 4.86%.
Regarding `CCOC(=O)C1CCC(CN(Cc2ccc(OC)cc2)S(=O)(=O)c2ccc(C)cc2)CC1` (stereo not drawn), the inhibition was 3.6%.
For the compound `CCc1ccc(CN(Cc2ccco2)c2cnc(S(C)(=O)=O)nc2C(=O)Nc2ccc(C)c(Cl)c2)cc1`, the inhibition stood at 9.94%.
With `CCCC(=O)Oc1c(Sc2ccc(C)cc2)c(C)nn1-c1ccccc1` the figure was -7.31%.
Turning to `COc1cc(OC)c(C(=O)NCc2nc(-c3ccccc3)no2)cc1OC`, the inhibition was -15.4%.
For `O=C(Nc1cc(Cl)cc(Cl)c1)c1ccc(F)c(S(=O)(=O)N2CCCC2)c1` the value was 4.08%; for `NC(N)=Nc1cc2ccccc2c2ccccc12`, active: 37.5%; for `Cc1ccc(NC(=O)CN(C)S(=O)(=O)c2cccc3cccnc23)c(C)c1`, 22.1%.
In the case of `COC(=O)c1ccccc1NC(=O)c1cc2ccccn2n1`, the inhibition was determined as 7.43%.
As for `O=C(Cn1ncn2c(cc3cc(F)ccc32)c1=O)NC1CCCCC1`, the inhibition amounted to 6.21%.
Regarding `Cc1oc2c(cc(NS(=O)(=O)c3ccc(Br)cc3)c3ccccc32)c1C(=O)OCc1ccccc1`, the inhibition is -13.8%.
Take `CN(C)c1ccc(C(=O)Nc2sc(Nc3ccccc3)nc2C(N)=O)cc1`: the inhibition came to 8.94%.
For `OC(COc1ccc(Cl)cc1)CN1CCN(c2ccccc2)CC1` (stereo not drawn) the value was active: 71.4%; for `COc1ccc(Cn2c(CCC(=O)Nc3ccc(Br)c(C)c3)nc3cccnc32)cc1`, 7.07%; for `CCCCCn1c(=O)[nH]c2cc(C(=O)N3CCN(c4ccc(OC)cc4)CC3)ccc2c1=O`, -8.06%.
Turning to `Cc1ccc(CN2CCC(CNC(=O)Nc3ccccc3F)CC2)cc1`, the inhibition was -14.5%.
For the compound `COc1ccc(C)cc1Nc1nc2c(S(=O)(=O)c3cc(C)ccc3C)nnn2c2ccsc12`, the inhibition was -5.01%.
Take `Cc1ccc(S(=O)(=O)N(C)C)cc1NC(=S)N(CCC#N)Cc1cccnc1`: the inhibition is active: 43.5%.
With `O=C(COc1ccc(Cl)cc1)NCCc1csc(-c2ccc(C(F)(F)F)cc2)n1` the figure was -10.1%; with `COCCNc1nc2c(S(=O)(=O)c3ccccc3)nnn2c2ccc(Cl)cc12`, -7.83%.
Regarding `COc1cc2c(cc1NC(=O)COc1cc(C)cc(C)c1)oc1ccccc12`, the inhibition is 13.2%.
For the compound `CCn1c(CNc2ccc(Cl)cc2)nnc1SCCN1CCCCC1`, the inhibition is active: 50%.
Turning to `COc1ccc(Cn2c(SCc3ccc(C(=O)NC4CCCCC4)cc3)nc3cccnc32)cc1`, the inhibition worked out at 7.68%.
As for `COc1ccc(Nc2ncnc3scc(-c4ccc(F)cc4)c23)cc1`, the inhibition was -18.4%.
For the compound `CC(=O)Nc1ccc2nc(SCCOc3ccc(C)cc3)sc2c1`, the inhibition is -1.46%.
For the compound `COc1ccc(NC(=O)c2sc3nc(C)c(C(=O)Nc4ccc(C)cc4C)c(-c4sccc4C)c3c2N)cc1`, the inhibition was -11.3%.
As for `COc1ccccc1-c1cc(C(F)(F)F)nc(S(=O)(=O)CCCC(=O)Nc2ccccc2F)n1`, the inhibition came out at 9%.
With `CCOc1ccc(C2c3[nH]c4ccccc4c3CCN2C(=O)CSc2ccccc2)cc1` (stereo not drawn) the figure was 4.04%; with `Fc1ccccc1N1CCN(CC2CCCCC2)CC1`, active: 88.8%.
For `CCOC(=O)c1cc(NC(=O)c2ccc(C)cc2)c(=O)n2c1oc1ccccc12` the value was -20.1%.
For `COCCCNC(=O)Cn1c(=O)n(-c2ccccc2)c(=O)c2c1c1cc(OC)ccc1n2C`, the inhibition amounted to 15.5%.
Take `COc1ccc(CN2C(=O)N(c3cccc(C)c3)C(=O)C2CC(=O)Nc2ccc(F)cc2)cc1OC` (stereo not drawn): the inhibition is -17.8%.
`COc1cccc(C(=O)Nc2nc3c(s2)CCCC3)c1`: the inhibition amounted to 21.2%.
Take `CN(Cc1ccccc1)C(=O)C(=O)Nc1ccc2nc3n(c(=O)c2c1)CCCCC3`: the inhibition was 2.45%.
With `CNc1ccc(-c2nc(-c3ccccn3)no2)cc1[N+](=O)[O-]` the figure was -2.08%; with `Cc1ccc(CNC(=O)c2cc3cc(C)ccc3n2C)cc1`, -5.7%.
For `COc1ccc(-n2c(=O)c3ccc(C(=O)NCc4ccc(C)cc4)cc3n(CC(=O)Nc3cccc(F)c3)c2=O)cc1` the value was 2.21%.
For `Cc1nonc1NC(=O)CSc1nc(C2CCCCC2)nc2ccccc12` the value was active: 53.5%.
Take `CCCNC(=O)C1CCC(Cn2c(=O)c3sccc3n(CC(=O)N(CC)CC)c2=O)CC1` (stereo not drawn): the inhibition was 0.693%.
For `COc1ccc(NC(=O)Cn2nnnc2-c2ccccc2F)c(C)c1` the value was -5.2%; for `COC(=O)c1ccc(NC(=O)CC2C(=O)N(c3cccc(F)c3)C(=O)N2CC(C)C)cc1` (stereo not drawn), -2.08%.
For `Cc1ccc(-n2nc(C(=O)N3CCCCC3)c(=O)n(C)c2=O)cc1`, the inhibition is 6.39%.
For `CCCN(CCC)CCNC(=O)CS(=O)Cc1nc(-c2ccc(OC)c(OC)c2)oc1C` (stereo not drawn) the value was -9.35%; for `Cc1ccc[n+](CC(=O)N2CCCc3ccccc32)c1`, active: 31.2%.
As to `CC1CCN(CCCCOc2cccc(C(C)C)c2)CC1`, the inhibition was active: 58.2%.
Turning to `CCc1ccc(S(=O)(=O)NCc2cccn2Cc2cccc(C)c2)cc1`, the inhibition is -1.23%.
As to `CCc1ccccc1NC(=O)c1cc(-c2ccc(OC)cc2)on1`, the inhibition is -1.85%.
With `CC1=C(C(=O)Nc2cc(Cl)ccc2C)C(c2ccccc2F)n2ncnc2N1` (stereo not drawn) the figure was 6.08%; with `COc1cc(C(=O)Nc2sc3c(c2C(N)=O)CCC(C)C3)cc(OC)c1OC` (stereo not drawn), 3.66%; with `CN(C)S(=O)(=O)c1ccc(Cl)c(NC(=O)C2CCN(S(=O)(=O)c3cccs3)CC2)c1`, active: 31.1%.
With `CCn1c(=O)c(=O)n(CC)c2cc(N3CCCCC3)c(NC(=O)c3ccc(OC)c(OC)c3)cc21` the figure was -25.3%; with `COc1ccc(-n2c(SCC(=O)Nc3ccccc3)nc3c(c2=O)SCC3)cc1`, active: 31.4%.
`COc1ccc(CCNC(=O)CSc2cc(=O)n(C)c3ccccc23)cc1OC`: the inhibition turned out to be 7.28%.
For `COc1cccc(C(=O)N(Cc2ccc(N(C)C)cc2)Cc2ccco2)c1` the value was 4.34%; for `O=C(CSc1nc2c([nH]c3ccccc32)c(=O)n1-c1ccc(Cl)cc1)NCc1ccccc1`, 21.1%.
Take `Clc1ccc(C[n+]2cc(-c3ccc(Cl)cc3)n3c2CCC3)cc1`: the inhibition was active: 44.4%.
With `O=C(CCCCCn1c(=O)[nH]c2ccccc2c1=O)NCCc1ccccc1` the figure was 2.24%.
